Over roughly 33,000 sequences, “E-score (-0.5 to 0.5)” has its median near -0.021; the highest 2% begin near 0.32. Some of the results follow.

This assay has as its target T1, Zap1 (UniProt P47043).
T1 sequence: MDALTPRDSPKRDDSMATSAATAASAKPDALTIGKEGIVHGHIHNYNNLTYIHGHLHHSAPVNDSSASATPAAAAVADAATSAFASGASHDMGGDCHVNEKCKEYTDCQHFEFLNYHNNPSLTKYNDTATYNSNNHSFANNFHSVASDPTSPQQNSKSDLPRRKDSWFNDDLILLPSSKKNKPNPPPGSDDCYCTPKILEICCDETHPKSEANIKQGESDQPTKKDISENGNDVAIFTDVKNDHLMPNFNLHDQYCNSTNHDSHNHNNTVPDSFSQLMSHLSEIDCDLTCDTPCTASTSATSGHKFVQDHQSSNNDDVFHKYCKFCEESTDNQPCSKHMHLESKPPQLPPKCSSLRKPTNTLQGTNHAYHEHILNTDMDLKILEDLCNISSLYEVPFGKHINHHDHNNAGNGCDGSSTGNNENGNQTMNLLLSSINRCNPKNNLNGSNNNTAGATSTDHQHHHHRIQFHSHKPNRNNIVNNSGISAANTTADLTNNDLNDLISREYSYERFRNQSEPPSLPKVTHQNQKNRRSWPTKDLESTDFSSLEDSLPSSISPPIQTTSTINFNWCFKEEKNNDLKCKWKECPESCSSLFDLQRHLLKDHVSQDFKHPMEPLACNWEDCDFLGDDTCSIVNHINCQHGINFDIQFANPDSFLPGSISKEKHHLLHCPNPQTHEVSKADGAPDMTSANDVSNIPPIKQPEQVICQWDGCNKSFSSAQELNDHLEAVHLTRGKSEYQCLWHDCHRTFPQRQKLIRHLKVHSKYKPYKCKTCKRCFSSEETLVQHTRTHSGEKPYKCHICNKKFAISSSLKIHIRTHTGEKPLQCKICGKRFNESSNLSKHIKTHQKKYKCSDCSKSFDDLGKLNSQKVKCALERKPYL
As to the kind of experiment: PBM E-score (8-mer binding enrichment) (E-score (-0.5 to 0.5)); higher = stronger / more preferred TF binding; most listed sequences are background and not binding sites. The following applies: protein concentration: 200 nM; construct: GST-full length. The essentials:
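For each ungapped eight-base word taken together with its reverse complement, the Universal PBM Analysis Suite assigned an E-score. Binding data came from GST-tagged yeast transcription factors, applied at about 100-200 nM, on universal all-10-mer Agilent arrays made double-stranded by primer extension. Fluorescent anti-GST marked bound protein, and scans were normalised with masliner.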
As for CACGGGCA, the “PBM E-score” value is -0.293.
ATCACTTC: the “PBM E-score” value is 0.0188.
The figure for CCCTTAAC is 0.0959; for AGACCCTC it is 0.092; for GGGGGACA it is -0.0784.
The figure for CGTGGAAG is -0.0481.
In the case of CGCCTTAA, the “PBM E-score” value is 0.166.
The figure for GGTGTGGA is 0.0481.
The value for CATTCACG was -0.0314; that for GGACCTAA was 0.121; that for CACGGGGC was -0.126.
Take CGCCGTGA: the “PBM E-score” value is -0.0412.
Regarding AGAGGTCA, the “PBM E-score” value was 0.41.
The figure for GGGTAACA is 0.334; for CACGCGTC it is 0.0376; for ATATAATA it is 0.155.
The value for CGCCATGC was -0.0963; that for ACTAGGGC was -0.163.
Turning to AAGGGGGG, the “PBM E-score” value was -0.48.
Regarding CGCCGCCG, the “PBM E-score” value is -0.0934.
The value for ATCCAAAG was 0.174; that for GTCCTAAC was 0.189.
The figure for CACAGCGC is -0.102; for CAATCGTA it is -0.00286.
The figure for GGAGGGCA is -0.147; for CGGTCTAG it is -0.0691.
Take AAAATACG: the “PBM E-score” value was determined as 0.0912.
For CAATTTCA, the “PBM E-score” value was -0.304.
The figure for ATTAACCG is 0.331; for ATGGATGC it is 0.13.
The figure for CAGTACTG is -0.118; for GACTCTAC it is -0.257; for TACTGGAA it is 0.12.
The value for AAGTTAGG was 0.0455.
Take AGTGTCAG: the “PBM E-score” value is -0.055.
As to ACTCCATC, the “PBM E-score” value is -0.00363.
For the sequence ACTCGTCA, the “PBM E-score” value was -0.117.
The value for CTTAGGGA was -0.123.
The figure for CTAGCACA is -0.151; for ACGTGCAT it is -0.0904.
The figure for TTCGACAA is 0.118.
ACTTCCCC: the “PBM E-score” value is -0.219.
The figure for CCCCAACG is 0.212; for CGAGTAAC it is 0.25.
The figure for GCTGCGGA is -0.135; for GGACCCTA it is 0.159; for GTGTATCA it is 0.132.
For the sequence ACAACAAG, the “PBM E-score” value worked out at 0.0549.
The figure for CAGCACAC is -0.276; for CGCTGTCA it is -0.209; for ACCAGTTA it is 0.206.
The figure for AATCCTCG is -0.0575; for AGTGTCTC it is -0.259; for CCGTTTAA it is 0.12.
The figure for ACAGACTC is -0.215; for GATGTTGC it is -0.143; for GCTGCCAA it is -0.177.
For the sequence CACCCACG, the “PBM E-score” value amounted to 0.123.
Turning to ATATGGCA, the “PBM E-score” value was -0.117.
Regarding CACACAGG, the “PBM E-score” value is -0.0209.
As for GAATGGTA, the “PBM E-score” value was 0.202.
The figure for ATGGCAAC is 0.223.
The figure for GTGTGTGA is 0.0986; for AAATCGTA it is -0.0156.
The value for GTTCTTCA was -0.0277; that for CACTGCAC was -0.0532; that for AGTTCTTG was 0.151.
Turning to CTTTTTAC, the “PBM E-score” value turned out to be 0.171.
The figure for CGGAATAA is 0.0667; for ATGGTAAA it is 0.0888; for AAGATCGT it is -0.0719.
The value for CAGGGTCG was 0.275; that for CTCTTTTA was -0.0724; that for AGGTTCCG was 0.2.
The figure for AAAGATCC is -0.143; for AGCCATAC it is -0.0612; for TGCACAAA it is 0.0826.
Turning to CCCGGATC, the “PBM E-score” value was -0.0795.
The figure for GCATCACC is 0.0458; for TTCCTAAA it is -0.0427; for GGTGACAA it is 0.242.
With AGAAGTCC, the “PBM E-score” value was -0.136.
Consider CAATACGC, for which the “PBM E-score” value was -0.213.
CTGAACGC: the “PBM E-score” value was -0.216.
The figure for CCGGCCGG is 0.138; for AGGTGAGG it is 0.118; for CCCGGCAA it is -0.137.
The value for GCCCTGCC was -0.0234.
For AGCGCGCT, the “PBM E-score” value was -0.256.
On to GCTTGCCA, for which the “PBM E-score” value is -0.258.
The figure for TCGGCGAA is -0.167.
The value for AGGTATTA was 0.264.
The figure for ACTACTAG is 0.0529; for CATAATCG it is 0.111; for ATTAAGTC it is -0.0888.
Take AAGAGGTG: the “PBM E-score” value was 0.0323.
The figure for CTACCGCA is 0.00616; for ACTCTAAA it is 0.203; for CTGAAGTC it is -0.0636.
The figure for AACGGGAA is -0.195.
The figure for GCATACAA is 0.0405; for GCATCCCC it is -0.0489.
Regarding ACCACGTG, the “PBM E-score” value is 0.154.
The value for ACGTGTAG was -0.272; that for GGACTCTA was -0.145.
The figure for ACGGCGAG is -0.122; for ATATCGGG it is -0.0718.
The value for TCAAATGA was -0.0747; that for AATGAAGT was 0.0905.

The values are drawn from the supplement of paper PMC3334620.
